Data as given in the antibiotic and cytotoxicity screens of Wong et al. (2023).
The other results are listed elsewhere or left out.

These compounds were tested on S. aureus RN4220 (assay: growth inhibition call (relative growth <= 0.2)). Conditions: 50 µM.

Growth inhibition call, inactive:
Cc1ccc(S(=O)(=O)N[C@@H]2C=C[C@@H](CC(=O)NCCN3CCCCC3)O[C@H]2CO)cc1
CC(C)n1c(=S)[nH]c2ccccc21
Cc1ccc(S(=O)(=O)N(C)C[C@@H]2OCCCC[C@H](C)Oc3ccc(NC(=O)CCC(F)(F)F)cc3C(=O)N([C@H](C)CO)C[C@@H]2C)cc1
COc1ccc(NC(=O)Nc2ccc3c(c2)C(=O)N([C@@H](C)CO)C[C@H](C)[C@H](CN(C)S(=O)(=O)c2cccs2)OCCCC[C@H](C)O3)cc1
COc1ccc(S(=O)(=O)N(C)C[C@H]2Oc3ccc(NS(=O)(=O)c4ccccc4)cc3CC(=O)N([C@H](C)CO)C[C@@H]2C)cc1
C[C@@H]1CCCCO[C@H](CN(C)C(=O)C2CCCCC2)[C@@H](C)CN([C@@H](C)CO)C(=O)c2cc(NS(=O)(=O)c3cccs3)ccc2O1
C[C@H]1CN([C@@H](C)CO)C(=O)c2cccc(NC(=O)c3ccncc3)c2O[C@@H]1CN(C)S(=O)(=O)c1ccc(F)cc1
COc1ccc([Si](C)(C)[C@@H]2[C@@H](CCOC(=O)NCCCCCC(=O)NO)O[C@@]3(C(=O)N(Cc4cccc(I)c4)c4ccccc43)[C@H]2C)cc1
C=C(NC(=O)C(=C)NC(=O)c1csc(C2=N[C@@H]3c4csc(n4)[C@@H]4NC(=O)c5csc(n5)[C@H](C(C)(O)[C@@H](C)O)NC(=O)[C@H]5CSC(=N5)/C(=C/C)NC(=O)[C@H]([C@@H](C)O)NC(=O)c5csc(n5)[C@]3(CC2)NC(=O)[C@@H](C)NC(=O)C(=C)NC(=O)[C@@H](C)NC(=O)[C@@H]([C@H](C)CC)N[C@H]2C=Cc3c([C@@H](C)O)cc(nc3[C@@H]2O)C(=O)O[C@H]4C)n1)C(N)=O (some centres undefined)
